Experimental data: PubChem BioAssay (Tox21)
Values joined by “and” are separate entries in the source; they are usually repeats but may differ in a detail not shown here. Equal values may be shown once. This list was built around the results that the source calls inconclusive (neither active nor inactive); the mix of calls is not that of the screen. Potencies beside an inconclusive call are fits to weak or partial responses and may not hold up. Active and inactive are the calls of the source. The call rests on the fitted dose curve; in most records, active means well fitted inhibition curve with a large enough effect in the repeat runs; inconclusive means weak or mixed curves; inactive means no such curve, though single readings can be large or run the other way.

biological target: Cytochrome P450 2C19 (Homo sapiens) (UniProt P33261); test: Cytochrome P450 Family 2 Subfamily C Member 19 (CYP2C19) small molecule antagonists: luciferase reporter qHTS assay (AID 1671197); details: P450-Glo CYP2C19 enzyme, luciferin luminescence, 1 h; series mostly up to 115 µM; activity change, negative = inhibition: at the top concentration; further: nearly all actives have a fitted effect of over 65% in size
Procedure, shortened: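 Inhibition of CYP2C19 was scored from loss of luminescence in a P450-Glo proluciferin substrate assay, NADPH-started and run 1 h at 37C, with ketoconazole as positive control.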
On the % scale 0 is the no-effect control and ±100 the full control effect; potency means the concentration at half of the fitted maximal effect; tags describe the fitted curve by direction and shape.

Chain of UniProt P33261 (P33261 whole entry, looked up): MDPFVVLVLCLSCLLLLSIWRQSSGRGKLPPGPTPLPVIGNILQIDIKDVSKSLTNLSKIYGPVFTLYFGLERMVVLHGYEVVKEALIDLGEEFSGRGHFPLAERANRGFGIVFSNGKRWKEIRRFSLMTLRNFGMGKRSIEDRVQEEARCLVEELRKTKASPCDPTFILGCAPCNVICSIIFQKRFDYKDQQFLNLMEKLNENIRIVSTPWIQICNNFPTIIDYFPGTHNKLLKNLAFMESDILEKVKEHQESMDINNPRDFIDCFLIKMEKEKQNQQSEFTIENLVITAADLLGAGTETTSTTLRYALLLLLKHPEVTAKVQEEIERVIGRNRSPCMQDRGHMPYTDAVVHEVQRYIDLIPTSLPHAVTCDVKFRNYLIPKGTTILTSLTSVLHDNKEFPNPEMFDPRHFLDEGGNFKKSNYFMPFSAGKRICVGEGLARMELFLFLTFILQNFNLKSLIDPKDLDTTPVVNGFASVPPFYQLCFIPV

Compound	Potency	activity change, negative = inhibition
OCC(O)CS (configuration not stated)	inconclusive: 90.3 µM [inhibitor, single point] and inactive	
CCC(C)C(C)=O (configuration not stated)	inconclusive: 55.1 µM [inhibitor, partial curve]	
CC(C)SCc1ccco1		inactive: -7.63% [at 52.9 µM]
O=C(O)c1ccc(S(=O)(=O)O)cc1C(=O)O	inconclusive: 71.2 µM [inhibitor, single point]	
NCCCOCCOCCOCCCN	inconclusive: 89.4 µM [inhibitor, single point]	
CCCS(=O)c1ccc2nc(NC(=O)OC)[nH]c2c1 (configuration not stated)	inconclusive: 43.6 µM [inhibitor, single point]	
CO[Si](OC)(c1ccccc1)c1ccccc1	active: 10 µM	
O=C(O)CC(C(=O)O)C(CC(=O)O)C(=O)O (configuration not stated)	inconclusive: 87.8 µM [inhibitor, single point] and inconclusive: 79.6 µM [inhibitor, single point]	
CC(C)(c1ccc(Oc2ccc3c(c2)C(=O)OC3=O)cc1)c1ccc(Oc2ccc3c(c2)C(=O)OC3=O)cc1		inactive: 0.511%
COC(=O)[C@H]1[C@H]2C[C@@H]3c4[nH]c5cc(OC)ccc5c4CCN3C[C@H]2C[C@@H](OC(=O)COc2ccc(OC)cc2)[C@@H]1OC	inconclusive: 38.9 µM [inhibitor, single point]	

biological target: Cytochrome P450 2C9 (Homo sapiens) (UniProt P11712); test: Cytochrome P450 Family 2 Subfamily C Member 9 (CYP2C9) small molecule antagonists: luciferase reporter qHTS assay (AID 1671198); details: P450-Glo CYP2C9 enzyme assay, luciferin luminescence; series mostly up to 115 µM; activity change, negative = inhibition: at the top concentration; further: nearly all actives have a fitted effect of over 50% in size
Procedure, shortened: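 P450-Glo proluciferin substrate with CYP2C9 enzyme; 10 min RT preincubation, then NADPH regeneration 1 h at 37C; luciferin detection reagent 20 min RT, luminescence in relative luminescence units.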

Chain of UniProt P11712 (P11712 whole entry, looked up): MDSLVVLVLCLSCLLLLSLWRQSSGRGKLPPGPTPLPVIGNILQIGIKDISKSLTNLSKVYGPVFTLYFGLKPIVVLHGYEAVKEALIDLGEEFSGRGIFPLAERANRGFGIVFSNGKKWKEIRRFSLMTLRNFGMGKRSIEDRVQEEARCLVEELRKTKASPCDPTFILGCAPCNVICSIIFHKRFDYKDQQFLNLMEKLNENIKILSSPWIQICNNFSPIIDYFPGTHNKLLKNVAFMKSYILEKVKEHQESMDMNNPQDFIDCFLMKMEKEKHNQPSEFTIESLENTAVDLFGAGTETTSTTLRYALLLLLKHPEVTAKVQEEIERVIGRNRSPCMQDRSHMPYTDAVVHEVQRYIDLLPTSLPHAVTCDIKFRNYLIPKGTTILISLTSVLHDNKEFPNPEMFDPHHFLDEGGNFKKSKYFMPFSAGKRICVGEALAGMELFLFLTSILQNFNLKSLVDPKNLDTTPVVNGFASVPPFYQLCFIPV

Compound	Potency	activity change, negative = inhibition
CCC(=O)/C=C/c1ccc(OC)cc1	active: 39.9 µM	
CCC(C(=O)O)c1ccc(N2Cc3ccccc3C2=O)cc1 (configuration not stated)	inconclusive: 30.9 µM [inhibitor, partial curve]	
O=C(NCc1ncc(C(F)(F)F)cc1Cl)c1c(Cl)cccc1Cl		inactive: 25.2%
[O-][N+](=Nc1ccccc1)c1ccccc1	inconclusive: 63.3 µM [inhibitor, partial curve]	
Nc1ccn([C@H]2CC[C@@H](CO)O2)c(=O)n1	inconclusive: 44 µM [inhibitor, partial curve]	
Cc1ccc(N(C)C)cc1	inconclusive: 31.7 µM [inhibitor, partial curve, poor fit]	
Nc1ccc(Cl)c([N+](=O)[O-])c1	inconclusive: 79.6 µM [inhibitor, partial curve, poor fit]	
NCCCOCCOCCOCCCN	inconclusive: 79.6 µM [inhibitor, partial curve, poor fit]	
Nc1ccc(F)c([N+](=O)[O-])c1	inconclusive: 79.6 µM [inhibitor, partial curve, poor fit]	
Cc1ccnc(N)c1		inactive: 18.3%
CC(C)(C)[C@@H](O)[C@@H](Cc1ccc(Cl)cc1)n1cncn1	active: 11.2 µM and active: 22.4 µM	
O=C(O)CC(C(=O)O)C(CC(=O)O)C(=O)O (configuration not stated)	inconclusive: 69.8 µM [inhibitor, partial curve, poor fit]	
